According to PubChem BioAssay (NCI):
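In this assay, cells in 96-well plates receive the compound at five concentrations for 48 hours. Endpoints are linearly interpolated between the surrounding concentrations. TGI: concentration producing complete growth inhibition.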 Some entries of the source have several records that differ or are many. The list is limited to them. An entry can have further records. The tests behind the records often covered other concentration ranges, not given here; a value can be the end of its range.

Experiments:
Assay in all cases: growth of human tumour cells (NCI), 48 h
A498 renal = system: A498 renal
CCRF-CEM leukemia = system: CCRF-CEM leukemia
RPMI-8226 leukemia = system: RPMI-8226 leukemia
HL-60(TB) leukemia = system: HL-60(TB) leukemia
SR leukemia = system: SR leukemia

Row | SMILES | TGI (A498 renal) | TGI (CCRF-CEM leukemia) | TGI (RPMI-8226 leukemia) | TGI (HL-60(TB) leukemia) | TGI (SR leukemia)
1 | CC1=C2C(=CO[C@H](C)[C@H]2C)C(=O)C(C(=O)O)=C1O | 64.1 µM and 2.07 µM | – | – | – | –
2 | CC(C)=CCC(OC(=O)C=C(C)C)C1=CC(=O)c2c(O)ccc(O)c2C1=O (stereo unspecified) | – | > 100 µM and 1.05 µM | > 100 µM and 1.76 µM | – | –
3 | COc1cc2cc(C(=O)N3CC(COS(C)(=O)=O)c4ccc(O)cc43)[nH]c2c(OC)c1OC (stereo unspecified) | – | – | 0.217 nM and 545 nM | 3.59 nM and 106 nM | 167 nM and > 100 µM
